Experimental data as given in PMC4242493.
This is one part of the list. The list includes weakly bound sequences.

Each sequence was assayed against MaxL homodimer (UniProt P61244) (assay: universal protein-binding microarray (PBM)). Details: PBS-based mixture, 10 nM His-tagged protein dimer, 2% milk, 200 ng/uL BSA, 50 ng/uL salmon testes DNA, 0.02% TX-100; detection with Alexa 488 anti-His …; high values mean tight binding; most listed sequences are background and not binding sites; double strand, one strand shown.
Sequence of UniProt P61244 (P61244 whole entry): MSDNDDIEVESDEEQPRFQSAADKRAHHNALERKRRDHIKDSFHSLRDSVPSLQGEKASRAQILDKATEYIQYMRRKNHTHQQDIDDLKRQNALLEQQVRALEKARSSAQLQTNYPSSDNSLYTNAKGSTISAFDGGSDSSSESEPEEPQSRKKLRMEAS

| Sequence | binding signal (normalized occupancy) |
| --- | --- |
| ACGGGCCG | 0.0711 |
| GTCTGCAA | 0.0724 |
| GACCTCAA | 0.0768 |
| TAACTAAA | 0.0724 |
| ACCTGATA | 0.0851 |
| AAGGGAAT | 0.0759 |
| AGTGTCGA | 0.0699 |
| ACTATAGC | 0.0765 |
| ACCCTGTA | 0.0791 |
| AACCCGAC | 0.0723 |
| CCCTTGCC | 0.0707 |
| AACACCCT | 0.0716 |
| CTCTGCCC | 0.0694 |
| ATCAGTGG | 0.0756 |
| ACAAAATG | 0.0808 |
| AGATCCCG | 0.0705 |
| CATCACGC | 0.0961 |
| CACCGTGG | 0.0891 |
| CTTCTAGA | 0.0721 |
| CCACGTCC | 0.0838 |
| ACTAAAAA | 0.0699 |
| CAAATTCG | 0.0697 |
| CCCGGGAG | 0.064 |
| AATATGGG | 0.0882 |

| Sequence | binding signal (normalized occupancy) |
| --- | --- |
| ACACTATG | 0.0843 |
| ACCCATAC | 0.0841 |
| AAGGAACA | 0.0727 |
| ATAAGATG | 0.0814 |
| CGCGCTAA | 0.075 |
| CAATTTGG | 0.0724 |
| ATGCCGCG | 0.0774 |
| CTCTGCTA | 0.0648 |
| CATCTCCC | 0.0761 |
| CAATACCG | 0.0718 |
| CAGGATGG | 0.0763 |
| CACGAAAC | 0.0765 |
| ACGTTGGC | 0.0786 |
| CCCTCGTC | 0.0691 |
| CGTAGCCC | 0.0704 |
| CGGCGTAA | 0.0695 |
| TGCCCCCA | 0.0819 |
| GCGGGGTA | 0.0798 |
| CAAACAGC | 0.0805 |
| GGTGGTCA | 0.0825 |
| AATCAAGA | 0.0796 |
| CGTACTCC | 0.0728 |
| GAGTAGGC | 0.0728 |
| ACTGATGG | 0.0747 |

| Sequence | binding signal (normalized occupancy) |
| --- | --- |
| AAATAGTG | 0.0749 |
| GGGTCTCA | 0.0791 |
| ATTTGGGC | 0.0746 |
| CCAGTCTC | 0.0689 |
| AGGCATCC | 0.0757 |
| GCGCTCCA | 0.0703 |
| CAGGGTGA | 0.0768 |
| CTAGTTTC | 0.0731 |
| AGGGAGCG | 0.0763 |
| AACAGCCC | 0.0779 |
| AGTCCTTC | 0.0668 |
| CTGAAAAG | 0.076 |
| ACTGAAGA | 0.0728 |
| GGGGACTA | 0.0794 |
| CGTGACAA | 0.0897 |
| CAGTTACC | 0.0779 |
| CAAAAACA | 0.0734 |
| ATCCGTAA | 0.0755 |
| ATCATAGC | 0.0844 |
| ATAACGGA | 0.0785 |
| TAACGGAA | 0.0745 |
| ATAACATC | 0.0807 |
| ACACTGCC | 0.0703 |
| AGGGCCAG | 0.0667 |

| Sequence | binding signal (normalized occupancy) |
| --- | --- |
| GCCCGTAC | 0.0723 |
| GCAGTCGC | 0.0722 |
| CAAGAGTG | 0.0796 |
| ACACTAGA | 0.0732 |
| CCCGCGGA | 0.0697 |
| ATAGATGG | 0.0848 |
| CTCCCGGC | 0.0667 |
| CACAGGAC | 0.0734 |
| AGAGCCAA | 0.0676 |
| CCGTCGCA | 0.0728 |
| CGAGTACC | 0.0756 |
| ACTGGAGC | 0.0725 |
| ACGCCTCG | 0.0686 |
| CGGGGCCC | 0.0716 |
| ATGGCGGC | 0.0766 |
| TGGCAGAA | 0.0752 |
| ATCCCTAG | 0.076 |
| ACAGGGGA | 0.083 |
| AGACAACG | 0.0817 |
| ACCCCCAC | 0.087 |
| CATGGGAA | 0.0896 |
| ATATCGTG | 0.082 |
